The values below come from article PMC5700166.

Test in all cases: protein-binding microarray (PBM)
Common to all, as to conditions: PBM: ~300 nM protein, 6 mM HEPES pH 7.8, 80 mM KCl, 0.5 mM EDTA, 0.5 mM EGTA, 6% glycerol, 35 ng/ul poly-dIdC, 1% milk, 1 h, room temperature; Ap Aiptasia and Nv Nematostella (sea anemones) / Co Capsaspora / Aq Amphimedon (sponge) / Dm Drosophila / Hu human; RHD is the Rel homology domain; high values mean tight binding; most listed sequences are background and not binding sites; double strand, one strand shown

For assay [1], the target named is T1, GST-Ap-NF-kB RHD (UniProt A0A913YAJ5).
T1 sequence: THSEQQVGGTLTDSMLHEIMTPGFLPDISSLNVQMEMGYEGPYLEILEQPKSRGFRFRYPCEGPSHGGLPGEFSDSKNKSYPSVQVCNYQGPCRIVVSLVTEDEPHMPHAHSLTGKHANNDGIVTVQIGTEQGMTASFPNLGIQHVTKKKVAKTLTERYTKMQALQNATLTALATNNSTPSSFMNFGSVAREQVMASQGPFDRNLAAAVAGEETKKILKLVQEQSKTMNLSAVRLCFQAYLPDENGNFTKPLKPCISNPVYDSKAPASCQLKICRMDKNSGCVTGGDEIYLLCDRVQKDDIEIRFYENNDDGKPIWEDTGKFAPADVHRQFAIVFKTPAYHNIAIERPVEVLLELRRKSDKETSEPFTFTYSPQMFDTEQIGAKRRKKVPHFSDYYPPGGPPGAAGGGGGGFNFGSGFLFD

Assay [2] deals with T2, GST-Nv-NF-kB (Cys allele) (UniProt E5G601).
T2 sequence: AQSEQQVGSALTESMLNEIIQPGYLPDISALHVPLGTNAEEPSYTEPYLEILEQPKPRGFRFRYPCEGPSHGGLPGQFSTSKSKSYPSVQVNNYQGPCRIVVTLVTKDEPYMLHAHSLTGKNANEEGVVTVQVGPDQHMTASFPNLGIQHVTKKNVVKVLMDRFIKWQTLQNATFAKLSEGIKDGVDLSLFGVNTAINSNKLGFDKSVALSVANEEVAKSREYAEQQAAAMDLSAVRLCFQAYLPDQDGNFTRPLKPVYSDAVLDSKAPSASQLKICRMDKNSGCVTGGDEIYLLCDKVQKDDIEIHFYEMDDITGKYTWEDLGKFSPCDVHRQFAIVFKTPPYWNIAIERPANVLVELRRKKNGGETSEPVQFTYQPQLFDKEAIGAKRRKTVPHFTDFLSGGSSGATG

In assay [3] the target is T3, GST-Co-NF-kB (UniProt F1ARL5).
T3 sequence: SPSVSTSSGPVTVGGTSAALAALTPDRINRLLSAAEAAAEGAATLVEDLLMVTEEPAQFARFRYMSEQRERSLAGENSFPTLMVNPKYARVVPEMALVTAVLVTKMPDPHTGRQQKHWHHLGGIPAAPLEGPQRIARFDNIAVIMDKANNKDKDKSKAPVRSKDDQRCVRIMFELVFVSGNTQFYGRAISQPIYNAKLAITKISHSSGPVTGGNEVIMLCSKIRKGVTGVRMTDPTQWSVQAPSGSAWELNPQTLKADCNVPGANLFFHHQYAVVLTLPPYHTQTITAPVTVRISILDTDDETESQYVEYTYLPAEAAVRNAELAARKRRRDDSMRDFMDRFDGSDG

In assay [4] the target is T4, GST-Dm-Relish (UniProt Q94527).
T4 sequence: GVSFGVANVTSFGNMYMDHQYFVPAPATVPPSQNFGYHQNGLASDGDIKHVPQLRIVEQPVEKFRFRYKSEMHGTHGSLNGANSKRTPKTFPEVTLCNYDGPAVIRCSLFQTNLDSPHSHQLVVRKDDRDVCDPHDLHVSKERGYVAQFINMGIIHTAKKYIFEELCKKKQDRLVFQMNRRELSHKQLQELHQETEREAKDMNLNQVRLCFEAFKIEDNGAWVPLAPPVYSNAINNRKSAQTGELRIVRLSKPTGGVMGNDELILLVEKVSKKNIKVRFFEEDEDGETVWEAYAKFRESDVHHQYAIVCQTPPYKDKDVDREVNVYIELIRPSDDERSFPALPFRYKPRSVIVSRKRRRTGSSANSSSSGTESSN

For assay [5], the target named is T5, GST-Aq-NF-kB (UniProt A9Y5G7).
T5 sequence: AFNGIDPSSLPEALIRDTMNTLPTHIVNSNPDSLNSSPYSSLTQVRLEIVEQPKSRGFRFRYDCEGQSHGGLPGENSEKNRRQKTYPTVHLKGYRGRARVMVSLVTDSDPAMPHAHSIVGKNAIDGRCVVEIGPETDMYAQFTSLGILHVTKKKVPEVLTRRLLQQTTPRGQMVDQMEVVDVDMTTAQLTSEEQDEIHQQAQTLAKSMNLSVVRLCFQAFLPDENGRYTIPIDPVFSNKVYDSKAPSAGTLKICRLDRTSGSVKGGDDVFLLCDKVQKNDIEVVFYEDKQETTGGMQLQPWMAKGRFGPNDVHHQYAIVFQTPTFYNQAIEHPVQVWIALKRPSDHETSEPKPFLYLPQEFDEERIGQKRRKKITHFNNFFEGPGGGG

The list shows a part of the results, in another mix than the full data. The list includes weakly bound sequences.

With “CCGATTAACATCAACCGGAGCAATGATGTTAATCGGGTCTTGATTCGCTTGACGCTGCTG”, the binding signal in assay [1] was -0.676 z-score; in assay [2], -0.903 z-score; in assay [3], -0.183 z-score; in assay [4], -0.511 z-score; in assay [5], -0.166 z-score.

As for “CCGATTAACATCAACTGCCGTCGTGATGTTAATCGGGTCTTGATTCGCTTGACGCTGCTG”, the binding signal in assay [1] was 0.161 z-score; in assay [2] it was -0.128 z-score; in assay [3], -0.361 z-score; in assay [4], -0.266 z-score; in assay [5], -0.23 z-score.

Regarding “CCGATTAACATCAGGAAAATTCATGATGTTAATCGGGTCTTGATTCGCTTGACGCTGCTG”, the binding signal in assay [1] was -0.137 z-score; in assay [2], -0.093 z-score; in assay [3] it was -0.409 z-score; in assay [4], 0.0806 z-score; in assay [5], 0.548 z-score.

In the case of “CCGATTAACATCAGGCTGTAGAGTGATGTTAATCGGGTCTTGATTCGCTTGACGCTGCTG”, the binding signal in assay [1] is 0.0504 z-score; in assay [2] it was 0.0828 z-score; in assay [3], -0.211 z-score; in assay [4] it was 0.00098 z-score; in assay [5] it was -0.0854 z-score.

As to “CCGATTAACATCAACGTTCCGCCTGATGTTAATCGGGTCTTGATTCGCTTGACGCTGCTG”, the binding signal in assay [1] is -0.451 z-score; in assay [2] it was -0.183 z-score; in assay [3], -0.871 z-score; in assay [4], 0.113 z-score; in assay [5], -0.236 z-score.

As for “CCGATTAACATCACGCCACACACTGATGTTAATCGGGTCTTGATTCGCTTGACGCTGCTG”, the binding signal was 0.0936 z-score in assay [1]; -0.233 z-score in assay [2]; 0.301 z-score in assay [3]; 0.442 z-score in assay [4]; -0.0614 z-score in assay [5].

Turning to “CCGATTAACATCATTAATGTAGATGATGTTAATCGGGTCTTGATTCGCTTGACGCTGCTG”, the binding signal was -0.523 z-score in assay [1]; 0.0944 z-score in assay [2]; -0.634 z-score in assay [3]; -0.154 z-score in assay [4]; -0.315 z-score in assay [5].

Take “CCGATTAACATCATAGATGTGTCTGATGTTAATCGGGTCTTGATTCGCTTGACGCTGCTG”: the binding signal is -1.07 z-score in assay [1]; -0.286 z-score in assay [2]; -0.728 z-score in assay [3]; -0.733 z-score in assay [4]; -0.376 z-score in assay [5].

For the sequence “CCGATTAACATCAATTCTTTCACTGATGTTAATCGGGTCTTGATTCGCTTGACGCTGCTG”, the binding signal in assay [1] was -0.301 z-score; in assay [2], 0.0156 z-score; in assay [3], -0.0258 z-score; in assay [4] it was -0.0991 z-score; in assay [5] it was -0.243 z-score.
